Structures are written as SMILES. “And” between values parts separate entries of the source, which are not always exact repeats. Identical values can stand only once.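 Results reflect a 48-hour exposure of cells in 96-well plates to compound at five concentrations. GI50 = concentration required for 50% inhibition of growth. Definition used: TGI = concentration required for complete inhibition of growth.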

These results are taken from PubChem BioAssay (NCI).

This experiment relates to NCI-H322M lung. The experiment is described as follows: NCI tumour cell line growth inhibition, 48 h.
On to `O=C1/C(=C/c2cccc(Br)c2)Cc2ccccc21`, for which the TGI was above 100 µM.

`CCOC(=O)C1(C/C=C/CBr)CCc2ccccc2C1=O` (centres undefined): the TGI was found to be 36.5 µM. Still for that read-out and setting: the same measure for `O=c1oc2ccccc2cc1-c1cn2ccccc2n1`: 23.1 µM; for `CN1C(=O)CSC1=S`: above 100 µM. With `c1ccc([P+](CC[P+](c2ccccc2)(c2ccccc2)c2ccccc2)(c2ccccc2)c2ccccc2)cc1`, the TGI is above 100 µM. `COC(=O)/C=C1\CCC(C)O1` (centres undefined): the TGI is above 100 µM. Compound `Nc1nc(Cl)c(N)c(NCC2(CO)CCCC2)n1` registered a TGI above 100 µM. `Cn1c(=O)oc2cc(C(O)CN3CCN(Cc4ccccn4)CC3)c(Cl)cc21` (centres undefined): the TGI is above 100 µM. Regarding `O=C(O/C=C\OC1CCCC1(c1ccccc1)c1ccccc1)c1ccccc1` (centres undefined), the TGI is 48.6 µM. The same measure, in the same setting: the same measure for `Cc1ccc(C)c(N=C2NC(=O)C(CC(=O)Nc3ccc(Cl)cc3Cl)S2)c1` (centres undefined): above 100 µM. Compound `O=C(O)CC(NC(=O)CP(=O)(O)O)C(=O)O` (centres undefined) yielded a TGI above 10000 µM. `CC(=O)O/C(=C1\C[C@H]2[C@@H]3CC=C4C[C@@H](OC(C)=O)CC[C@]4(C)[C@H]3CC[C@]2(C)C1=O)C(F)(F)F` registered a TGI of 46.2 µM. As to `C/C(CC(=O)Nc1cccc(Cl)c1C)=N\NC(=O)c1ccncc1`, the TGI is above 100 µM. `O=CN1CCN(CC(O)CN2CCCCC2)CC1` (centres undefined) came in with a TGI above 100 µM.

`O=C(Nc1ccc(F)cc1)c1cc(S(=O)(=O)Nc2nc3ccccc3o2)c(SCc2ccccc2)cc1Cl`: the GI50 is 12.8 µM and the TGI was 25.5 µM.

`Cc1c(O)c(OC2OC(CO)C(O)C(O)C2O)cc2c1CC[C@@H]1C2(C)C(=O)C[C@]2(C)[C@@H]([C@@](C)(O)C(=O)CCC(C)(C)O)[C@H](O)C[C@@]12C` (some centres undefined) yielded a TGI above 100 µM. In the case of `O=S(=O)(Nc1ccc(F)cc1F)c1ccc(-c2cnc(C3CC3)o2)cc1`, the GI50 was 4.69 µM and the TGI was above 100 µM.

Compound `COc1cc(O)c(C(=O)/C=C/c2ccc(O)cc2)cc1Oc1ccc(/C=C/C(=O)c2ccc(O)cc2O)cc1` registered a TGI of 21.4 µM. In the case of `CCCOc1ccc2sc(NC(=O)OC)nc2c1`, the GI50 was 7.88 µM and the TGI was above 100 µM.

As to `OCCCNc1nccc(-c2c(-c3ccc(F)cc3)nn3cc(C(F)(F)F)ccc23)n1`, the GI50 is above 25 µM and the TGI was above 25 µM.

In the case of `Oc1cc(O)cc(-c2nc3cc(F)ccc3s2)c1`, the TGI is above 100 µM. As for `CC1=C(C(=O)Nc2ccc(Cl)c(Cl)c2)C(c2cccc(Oc3ccccc3)c2)NC(=O)N1` (centres undefined), the GI50 is 8.1 µM and the TGI amounted to 19 µM. In the case of `N#Cc1[nH]c(=S)[nH]c1N`, the TGI is above 100 µM. As to `Cc1cc(NS(=O)(=O)c2ccc(Nc3c4ccccc4nc4c(C(=O)N5CCN(CCO)CC5)ccc(Cl)c34)cc2)no1`, the TGI is above 100 µM. As for `CCOC(=O)/C=C(/C)Sc1cc(O)c2ccccc2c1O`, the GI50 was 3.04 µM and the TGI turned out to be 13 µM. In turn, `Cc1nc([N+](=O)[O-])cn1CC(=N)N` returned a TGI above 100 µM. Regarding `O=C(O)c1nc2ccc(C(F)(F)F)cc2nc1NCc1ccc(F)cc1`, the TGI stood at 84.6 µM. Same read-out and setting: the same measure for `COC(=O)[C@H]1C=C[C@@H](C)n2c(=O)c3cc4ccccc4cc3c(=O)n21`: above 100 µM; for `CN(C)CC1CCC/C(=C\c2ccc(Cl)cc2)C1=O` (centres undefined): 28.5 µM. As for `C1=C\COCc2cc(ccc2OCCN2CCCC2)Nc2nccc(n2)-c2cccc(c2)COC/1`, the GI50 was 1.49 µM and the TGI was 5.79 µM. For `C=CC1C(OC2OC(CO)C(O)C(O)C2O)OC=C(C(=O)OC)C1CC1CC(=O)CC(CCc2ccc(O)cc2)O1` (centres undefined), the TGI was above 100 µM. Same read-out and setting: under `CCCCCCCCCCCCC/C=C/[C@@H](O)[C@H](COC1OC(CO)C(OC2OC(CO)C(O)C(OC3(C(=O)O)CC(O)C(NC(C)=O)C(C(O)C(O)CO)O3)C2O)C(O)C1O)N=[N+]=[N-]` (some centres undefined) stands above 100 µM.

Take `COc1cc(C(=O)N2CCN(c3ncccn3)CC2)c(N)cc1OCc1ccccc1`: the GI50 was above 100 µM and the TGI was above 100 µM. As to `CCOC(=O)c1c(NC(=O)OC)c(C#N)c2n1CCCCC2`, the TGI is above 100 µM. Same read-out and setting: under `CC(CO)CCNc1ncnc2c1ncn2CCC(=O)OC(C)(C)C` (centres undefined) stands above 100 µM; under `COc1ccc(C2OC(N)=C(C#N)C3=C2CCCC3C)cc1OC` (centres undefined), above 100 µM; under `CN1C(=O)c2ccccc2OC12C=Cc1ccc(O)cc1O2` (centres undefined), above 100 µM.

The compound `C=C1C(=O)OC2CC(C)C3(O)CCC(=O)C3(C)CC12` (centres undefined) had a TGI above 100 µM. With `COc1c[c]([Hg][O]C(C)=O)c(OC)c(NC(=O)CC(C)=O)[c]1[Hg][O]C(C)=O`, the GI50 was 17.1 µM and the TGI came out at 30.8 µM.

Consider `COc1cc(N(CCC#N)CCC#N)ccc1/C(N=Nc1ccccc1C)=N\NC(=O)c1ccc(C)cc1`, for which the TGI was above 100 µM. `COc1c(OC(C)=O)c(OC(C)=O)cc2c1-c1ccc(SC)c(=O)cc1C(NC(C)=O)CC2` (centres undefined) returned a TGI above 34.9 µM. For the compound `C/C(=N/NC(=S)Nc1ccc(Cl)cc1)c1cccc(/C(C)=N\NC(=S)Nc2ccc(Cl)cc2)n1`, the TGI is 7.36 µM. As for `COC(=O)c1c(C#N)[nH]c(-c2ccsc2)c1C(=O)OC`, the TGI is above 100 µM. Still for that read-out and setting: under `CCC1CCc2c(c(=O)oc3c2cc(OC)c2cccc(OC)c23)C1` (centres undefined) stands above 100 µM; under `COC(=O)c1ccccc1Nc1nc(-c2cccs2)nc2cc(OC)c(OC)cc12`, above 100 µM. The compound `COc1ccc(OC)c(C(Cc2ccnc3ccccc23)Cc2ccnc3ccccc23)c1` had a TGI above 10 µM.

Take `NCCSc1nc(-c2ccccc2)c(-c2ccccc2)o1`: the TGI is above 100 µM. In the case of `CC(O)CCCCC(O)CCC[C@H](O)[C@H]1CCC([C@H]2CCC([C@@H](O)CCCCCCCCCCCCC3=C[C@H](C)OC3=O)O2)O1` (some centres undefined), the TGI worked out at 24.7 µM. Still for that read-out and setting: the same measure for `O=C(NCCCl)N(O)C(=O)Nc1ccccc1`: above 100 µM; for `Cc1ccc(-c2n[nH]c(=O)n2/N=C\c2ccc([N+](=O)[O-])cc2)cc1`: above 100 µM. Take `CSc1ccc2c(c1)C(=O)c1c-2n(CCCBr)c(=O)c2cc([N+](=O)[O-])ccc12`: the GI50 is 31.4 µM and the TGI was above 100 µM.

On to `CC(C)(C)OC(=O)NC(Cc1ccc(OC(C)(C)C)cc1)C(=O)N[C@H]1CCC[C@H]1C(=O)NC(Cc1ccccc1)C(=O)N1CCCC1C(N)=O` (some centres undefined), for which the TGI was above 100 µM. As for `CCC(C)C1NC(=O)C(NC(=O)c2c3[nH]c4c(C(=O)NC5C(=O)NC(C(C)CC)C(=O)N6CCCC6C(=O)N(C)CC(=O)N(C)C(C(C)C)C(=O)OC5C)ccc(C)c4oc-3c(C)c(=O)c2=O)C(C)OC(=O)C(C(C)C)N(C)C(=O)CN(C)C(=O)C2CCCN2C1=O` (centres undefined), the TGI came to 69.4 µM. `CN1CCc2c(sc3ncn(C)c(=N)c23)C1`: the TGI is above 100 µM. Turning to `COc1cc2c3c(n(CCCOC(=O)C(F)(F)F)c(=O)c2cc1OC)-c1cc2c(cc1C3=O)OCO2`, the GI50 was 0.0992 µM. For the compound `C#COc1cccc(Nc2c(C#N)cnc3ncc(NC(=O)CCl)cc23)c1`, the GI50 is above 62.5 µM and the TGI was above 62.5 µM.

For `CN(CCO)c1ccc(N2Cc3ccccc3OC3=C2C(=O)c2c(O)ccc(O)c2C3=O)cn1`, the GI50 is 1.06 µM and the TGI turned out to be 2.44 µM.

The compound `CC1C[C@]2(C)C(=NCCN)Nc3ccccc3[C@@H]2N(C)c2ccccc21` (some centres undefined) had a TGI of 23 µM.

The compound `OCc1ccn2c1[C@@H](O)CC2` returned a TGI above 100 µM.

Consider `c1ccc2nc3c(nc2c1)sc1ccccc13`, for which the TGI came out at 89 µM. `COc1ccc(-c2csc(Cc3nc4ccccc4c(=O)n3-c3ccc(Cl)cc3)n2)cc1` yielded a TGI of 72.9 µM. Same read-out and setting: under `CCCO/S(=N\S(=O)(=O)c1ccccc1)c1ccccc1[N+](=O)[O-]` (centres undefined) stands above 100 µM; under `CC1CC[C@@]2(OC1)OC1C[C@H]3[C@@H]4CC[C@H]5CC(OC6OC(CO)C(O)C(OC7OC(CO)C(OC8OC(CO)C(O)C(OC9OC(CO)C(O)C(O)C9O)C8OC8OC(CO)C(O)C(O)C8O)C(O)C7O)C6O)[C@H](O)CC5(C)[C@H]4CCC3(C)C1[C@@H]2C` (some centres undefined), 8.13 µM. Still for that read-out and setting: the same measure for `CN(C)CCNC(=O)c1ccc2nc3c(nc2c1)C(=O)c1ccccc1-3`: above 100 µM. `N#CC(OC1OC(COC2OC(CO)C(O)C(O)C2O)C(O)C(O)C1O)c1ccccc1` (centres undefined) registered a TGI above 225 µM.

In turn, `CC(C(=O)OCc1ccccc1)(c1ccco1)N1C(=O)OC(c2ccccc2)C1c1ccccc1` (centres undefined) returned a TGI above 100 µM. In the case of `CCOP(=O)(OCC)OC1C=CC2CCC1C2` (centres undefined), the TGI was above 100 µM.

With `COC(=O)[C@@H](C)C[C@H](Cc1ccccc1)NC(=O)c1csc([C@@H](C[C@H](C(C)C)N(C)C(=O)[C@@H](NC(=O)[C@H]2CCCCN2C)C2CCCCC2)OC(C)=O)n1`, the GI50 is 0.000761 µM and 0.0025 µM; the TGI was above 25 µM. `COC(=O)C1=C(C(=O)Nc2cccnc2Cl)N(c2ccc(OC)cc2[N+](=O)[O-])C(c2ccc(C)cc2)=CC1c1ccc(OC)cc1OC` (centres undefined) showed a TGI above 70.2 µM.

`CC(C)N(CCn1c2c3ccccc3ccc2c2oc(=O)c3ccccc3c21)C(C)C` displayed a TGI above 100 µM. `Cc1cc(S(=O)(=O)O)c(NC(=O)C(=O)Cc2cc(=O)oc3cc(O)ccc23)cc1Cl` displayed a TGI above 100 µM.

`CCN(Cc1ccccc1C)c1ccc(CO)c(Cl)c1`: the GI50 was 12.7 µM and the TGI is 27.6 µM.

For the compound `C=C1C(=O)O[C@H]2[C@H]1CC/C(COC(=O)/C=C\C(=O)NCc1ccc(Cn3c(=O)sn(CCCC)c3=O)cc1)=C\CC[C@@]1(C)O[C@@H]21`, the GI50 was 1.53 µM and the TGI is 2.9 µM.

With `CN[C@@H](C)[C@@H](NC)c1ccccc1`, the TGI is above 100 µM. Regarding `[N-]=[N+]=NC1C(O)C(CO)OC1n1ccc(=O)[nH]c1=O` (centres undefined), the TGI was above 875 µM.

`COC(=O)C1(C(=O)OC)C/C(C)=C(/C)SCCCS1`: the TGI was above 100 µM. Still for that read-out and setting: the same measure for `O=c1cc(CO)oc(C(O)c2ccccc2)c1O` (centres undefined): above 100 µM; for `COc1ccc2c(c1)nc1n2C(c2c(Cl)cccc2Cl)SC1` (centres undefined): above 100 µM. The same measure, in the same setting: the same measure for `CCOC(=O)c1nc2ccc(C(F)(F)F)cc2[nH]c1=O`: above 100 µM; for `[N-]=[N+]=Nc1cc(=O)n2c3c(cccc13)CCC2`: above 100 µM.

`Cc1cccc(C)c1NC(=O)C(=O)C(C(=O)c1ccccc1-c1ccccc1)C1OC(=O)c2ccccc21` (centres undefined) registered a TGI of 73.1 µM. The same measure, in the same setting: under `c1ccc(NN=C(c2ccccn2)c2ccccn2)nc1` stands above 100 µM. On to `COc1ccc(-c2ccc(-c3ccc(C(=N)N)s3)s2)cc1`, for which the GI50 was 0.39 µM and the TGI came to 1.38 µM.
